Substitutions are numbered along the chain they refer to; changes in the protein carry UniProt numbers. Some of the results follow.

For 20 molecules, binding signal results are on record in publication PMC9911399, “Two distinct binding modes provide the RNA-binding protein RbFox with extraordinary sequence specificity”.

The chains are these.
B1: UAGAGUA (DNA:RNA)
RNA: GGGAGACCGGAAUUCAGAUUGUCCUAGAGUAUUAAAUCCCGUCGUAGCCACCA
DNA 1: CAATCTGAATTCCGGTCTCCC
DNA 2: TGGTGGCTACGACGGGATT
B2: GAGCGAU (DNA:RNA)
RNA: B1 RNA with U25G, A28C, U30A, A31U
DNA 1: CAATCTGAATTCCGGTCTCCC
DNA 2: TGGTGGCTACGACGGGATT
B3: UGCUAUG (DNA:RNA)
RNA: B1 RNA with A26G, G27C, A28U, G29A, A31G
DNA 1: CAATCTGAATTCCGGTCTCCC
DNA 2: TGGTGGCTACGACGGGATT
B4: ACGGUGG (DNA:RNA)
RNA: B1 RNA with U25A, A26C, A28G, G29U, U30G, A31G
DNA 1: CAATCTGAATTCCGGTCTCCC
DNA 2: TGGTGGCTACGACGGGATT
B5: UGCAAGC (DNA:RNA)
RNA: B1 RNA with A26G, G27C, G29A, U30G, A31C
DNA 1: CAATCTGAATTCCGGTCTCCC
DNA 2: TGGTGGCTACGACGGGATT
B6: AGUGUAC (DNA:RNA)
RNA: GGGAGACCGGAAUUCAGAUUGUCCAGUGUACUUAAAUCCCGUCGUAGCCACCA
DNA 1: CAATCTGAATTCCGGTCTCCC
DNA 2: TGGTGGCTACGACGGGATT
B7: AUUAUAC (DNA:RNA)
RNA: B6 RNA with G26U, G28A
DNA 1: CAATCTGAATTCCGGTCTCCC
DNA 2: TGGTGGCTACGACGGGATT
B8: AUCGUUG (DNA:RNA)
RNA: B6 RNA with G26U, U27C, A30U, C31G
DNA 1: CAATCTGAATTCCGGTCTCCC
DNA 2: TGGTGGCTACGACGGGATT
B9: UACACCU (DNA:RNA)
RNA: B1 RNA with G27C, G29C, U30C, A31U
DNA 1: CAATCTGAATTCCGGTCTCCC
DNA 2: TGGTGGCTACGACGGGATT
B10: CGAAACG (DNA:RNA)
RNA: B6 RNA with A25C, U27A, G28A, U29A, A30C, C31G
DNA 1: CAATCTGAATTCCGGTCTCCC
DNA 2: TGGTGGCTACGACGGGATT
B11: GGUUCCU (DNA:RNA)
RNA: B6 RNA with A25G, G28U, U29C, A30C, C31U
DNA 1: CAATCTGAATTCCGGTCTCCC
DNA 2: TGGTGGCTACGACGGGATT
B12: UGCAUGU (DNA:RNA)
RNA: B6 RNA with A25U, U27C, G28A, A30G, C31U
DNA 1: CAATCTGAATTCCGGTCTCCC
DNA 2: TGGTGGCTACGACGGGATT
B13: AGUGCAC (DNA:RNA)
RNA: B6 RNA with U29C
DNA 1: CAATCTGAATTCCGGTCTCCC
DNA 2: TGGTGGCTACGACGGGATT
B14: CUCCAAA (DNA:RNA)
RNA: B6 RNA with A25C, G26U, U27C, G28C, U29A, C31A
DNA 1: CAATCTGAATTCCGGTCTCCC
DNA 2: TGGTGGCTACGACGGGATT
B15: CCGCCGG (DNA:RNA)
RNA: B1 RNA with U25C, A26C, A28C, G29C, U30G, A31G
DNA 1: CAATCTGAATTCCGGTCTCCC
DNA 2: TGGTGGCTACGACGGGATT
B16: CAAUGGA (DNA:RNA)
RNA: B1 RNA with U25C, G27A, A28U, U30G
DNA 1: CAATCTGAATTCCGGTCTCCC
DNA 2: TGGTGGCTACGACGGGATT
B17: AGCUGGU (DNA:RNA)
RNA: B6 RNA with U27C, G28U, U29G, A30G, C31U
DNA 1: CAATCTGAATTCCGGTCTCCC
DNA 2: TGGTGGCTACGACGGGATT
B18: GCUUGUA (DNA:RNA)
RNA: B1 RNA with U25G, A26C, G27U, A28U
DNA 1: CAATCTGAATTCCGGTCTCCC
DNA 2: TGGTGGCTACGACGGGATT
B19: ACGUAGC (DNA:RNA)
RNA: B6 RNA with G26C, U27G, G28U, U29A, A30G
DNA 1: CAATCTGAATTCCGGTCTCCC
DNA 2: TGGTGGCTACGACGGGATT
B20: CGGCUAU (DNA:RNA)
RNA: B6 RNA with A25C, U27G, G28C, C31U
DNA 1: CAATCTGAATTCCGGTCTCCC
DNA 2: TGGTGGCTACGACGGGATT

The assay has as its target T1, RBFOX1 RRM RbFoxmut (Fox-RRM*) (Homo sapiens, UniProt Q9NWB1 109-208, R118D;E147R;N151S;E152T).
T1 sequence: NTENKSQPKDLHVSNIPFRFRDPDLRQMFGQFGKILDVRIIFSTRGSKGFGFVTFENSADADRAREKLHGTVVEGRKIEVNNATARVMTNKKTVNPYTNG
The experiment in a line: EMSA; HiTS-Eq, 1 nM pool, 10 min; buffer printed only for the single-RNA assays: 10 mM Tris pH 7.5, 150 mM NaCl, 3.4 mM EDTA, 0.001% NP-40, 30 C. The note with it: tags: His6 N-terminal (pET28a); label: 5' 32P. In a few lines:
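Purified RbFox RRM, wild type or mutant, was incubated for 10 min in 50 µL with 1 nM of a 5′-radiolabelled RNA pool carrying 7 randomized nucleotides, whose flanks were annealed to DNA oligonucleotides, over a series of increasing protein concentrations. Unbound RNA was resolved on 8% native PAGE, cut out, reverse-transcribed, barcoded by PCR and sequenced on an Illumina HiSeq 2500. Relative association constants were derived from changes in read counts for each RNA species versus the control reaction and normalised to the cognate motif.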
In general terms: A gel shift assay detects complexes by their altered migration in electrophoresis.
On to B1, for which the binding signal was 0.131 KA relative to UGCAUGU. Regarding B2, the binding signal is 0.0732 KA relative to UGCAUGU. As for B3, the figure is 0.863 KA relative to UGCAUGU; as for B4, 0.133 KA relative to UGCAUGU.

As to B5, the binding signal was 0.0625 KA relative to UGCAUGU. B6: the binding signal was 0.131 KA relative to UGCAUGU. With B7, the binding signal was 0.14 KA relative to UGCAUGU.

On to B8, for which the binding signal is 0.175 KA relative to UGCAUGU.

In the case of B9, the binding signal is 0.0835 KA relative to UGCAUGU.

Regarding B10, the binding signal was 0.085 KA relative to UGCAUGU. With B11, the binding signal was 0.106 KA relative to UGCAUGU. B12: the binding signal was 1 KA relative to UGCAUGU. Turning to B13, the binding signal is 0.077 KA relative to UGCAUGU. On to B14, for which the binding signal is 0.0937 KA relative to UGCAUGU. With B15 the figure was 0.0808 KA relative to UGCAUGU.

Take B16: the binding signal is 0.0658 KA relative to UGCAUGU. As for B17, the figure is 0.137 KA relative to UGCAUGU. Take B18: the binding signal is 0.321 KA relative to UGCAUGU. Take B19: the binding signal is 0.122 KA relative to UGCAUGU.

In the case of B20, the binding signal is 0.0735 KA relative to UGCAUGU.
